Results published in paper PMC4336329 (PLoS ONE, 2015).
In all, about 310,000 compounds went through this assay and about 14,000 (4.5%) showed an effect of 50% or more. The effect is printed as a negative number. Some of the results follow.

Molecular target: human ether-à-go-go-related gene (hERG) potassium channel (human, UniProt Q12809)
Assay: primary screen, population patch clamp on CHO cells stably expressing hERG
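Further: peak tail current of the secondary pulse compared with the same well before compound.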

human ether-à-go-go-related gene (hERG) potassium channel, sequence (Q12809 whole entry, looked up): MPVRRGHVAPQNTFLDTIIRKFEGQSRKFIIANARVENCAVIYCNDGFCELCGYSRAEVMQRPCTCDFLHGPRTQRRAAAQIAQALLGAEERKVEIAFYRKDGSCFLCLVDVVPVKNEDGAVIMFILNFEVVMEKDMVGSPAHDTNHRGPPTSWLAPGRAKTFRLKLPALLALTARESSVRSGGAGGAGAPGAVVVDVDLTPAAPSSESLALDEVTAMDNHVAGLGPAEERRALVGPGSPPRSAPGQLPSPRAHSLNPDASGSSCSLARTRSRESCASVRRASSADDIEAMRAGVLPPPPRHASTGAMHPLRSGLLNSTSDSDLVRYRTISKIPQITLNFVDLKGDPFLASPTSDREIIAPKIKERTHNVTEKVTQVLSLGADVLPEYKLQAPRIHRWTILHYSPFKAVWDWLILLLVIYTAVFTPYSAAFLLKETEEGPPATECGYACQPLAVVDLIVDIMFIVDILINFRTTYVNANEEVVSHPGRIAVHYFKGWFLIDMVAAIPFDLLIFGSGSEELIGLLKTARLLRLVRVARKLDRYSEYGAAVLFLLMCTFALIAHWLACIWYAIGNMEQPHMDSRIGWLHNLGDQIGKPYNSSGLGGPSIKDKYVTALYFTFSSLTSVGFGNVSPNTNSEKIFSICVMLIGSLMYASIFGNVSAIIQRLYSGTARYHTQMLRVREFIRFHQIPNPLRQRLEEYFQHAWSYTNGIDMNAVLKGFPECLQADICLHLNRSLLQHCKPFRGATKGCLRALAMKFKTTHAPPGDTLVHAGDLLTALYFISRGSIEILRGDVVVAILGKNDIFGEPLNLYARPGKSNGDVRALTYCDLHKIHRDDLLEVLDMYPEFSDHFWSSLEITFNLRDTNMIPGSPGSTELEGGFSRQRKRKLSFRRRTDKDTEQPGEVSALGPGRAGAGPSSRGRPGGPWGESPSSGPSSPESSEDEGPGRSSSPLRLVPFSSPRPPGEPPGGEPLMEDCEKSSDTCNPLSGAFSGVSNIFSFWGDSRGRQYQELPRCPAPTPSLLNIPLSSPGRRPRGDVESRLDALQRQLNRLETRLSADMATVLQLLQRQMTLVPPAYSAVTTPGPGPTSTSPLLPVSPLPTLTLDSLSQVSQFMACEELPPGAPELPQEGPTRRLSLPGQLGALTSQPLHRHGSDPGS

| Structure (SMILES) | hERG current change (%, negative = inhibition) at 10uM |
| --- | --- |
| O=C(c1cccc(C(=O)N2CCN(c3ccccc3F)CC2)c1)N1CCN(c2ccccc2F)CC1 | -2.32% |
| CC(C)NC(=O)/C(=C\c1cccc([N+](=O)[O-])c1)NC(=O)c1ccccc1 | -18.1% |
| C=CC1C(OC2OC(CO)C(O)C(O)C2O)OC=C(C(=O)OC)C1CC1CC(=O)CC(CC(=O)CCc2ccc(O)cc2)O1 (stereo not shown) | 2.27% |
| Cc1ccc(N/N=C2\COC(C)(C)CC2=O)cc1 | 11.7% |
| Cc1cc(C)n(-c2ccc(C(=O)Nc3ccc(S(=O)(=O)NCc4ccco4)cc3)cc2)n1 | 3.53% |
| Cc1cc(SCC(=O)Nc2ccccc2C)nc(C)n1 | -1.35% |
| Cc1c(NC(=S)NC(=O)CCc2ccccc2)c(=O)n(-c2ccccc2)n1C | 5.75% |
| CC(=O)/C(=N\Nc1ccccc1)Sc1cccc2cccnc12 | -4.51% |
| Cc1ccc(C)c(OCC(=O)Nc2c[nH]c(=O)[nH]c2=O)c1 | 21% |
| COc1ccc(N2CCN(C(=O)CN(C)S(=O)(=O)c3cccs3)CC2)cc1 | -17.9% |
| O=C(O)CN1C(=O)/C(=C2\C(=O)N(Cc3ccccc3Cl)c3ccccc32)SC1=S | 19.2% |
| CCCCOC(=O)c1ccc(O)cc1 | 13.5% |
| COc1ccccc1C(CNC(=O)COc1ccccc1C)N1CCCC1 (stereo not shown) | -30.4% |
| Cc1c(NC(N)=O)c(=O)n(-c2ccccc2)n1C | 3.79% |
| CCc1cccc2c1NC(=O)[C@]21[C@@H]2C(=O)N(Cc3ccccc3)C(=O)[C@@H]2[C@@H]2CCCN21 | -0.504% |
| CCOC(=O)CC(=O)Nc1ccsc1C(N)=O | 15.9% |
| Cc1cc(NS(=O)(=O)c2ccc(NC(=O)NC(C)(C(F)(F)F)C(F)(F)F)cc2)no1 | -16.5% |
| COC(=O)c1cc(COC(=O)c2cccnc2SC)oc1C | -5.24% |
| O=C(Nc1cccc(-c2nc3ncccc3o2)c1)c1cc2ccccc2o1 | -23.1% |
| O=C(Nc1c(Cl)cc(Cl)cc1C(=O)NCCN1CCOCC1)c1ccc(Cl)cc1Cl | -24.9% |
| COc1ccccc1NC(C#N)c1ccccc1OCc1ccccc1 (stereo not shown) | 24.8% |
| COc1cc(C(=O)Nc2ccc(Br)cc2C(=O)c2ccccc2)cc(OC)c1OC | 12.4% |

| Structure (SMILES) | hERG current change (%, negative = inhibition) at 10uM |
| --- | --- |
| CCN(CC)CCn1c(NC(=O)c2ccc(C(F)(F)F)cc2)nc2ccccc21 | -25.7% |
| N#C/C(=C\c1cccs1)C(=O)NCc1ccco1 | -2.84% |
| O=C(OCc1c(Cl)cccc1Cl)c1cnccn1 | 15.4% |
| CCn1c(SCC(=O)NNC(=O)c2ccc(OC)cc2)nnc1C1CC1 | 26.4% |
| CC(C)C(C(=O)NCc1ccco1)N(C(=O)CNS(=O)(=O)c1ccccc1)C1CCCC1 (stereo not shown) | 9.1% |
| COc1ccc(/C=C/C(=O)N2CCN(c3ccccn3)CC2)c2ccccc12 | -17.1% |
| O=C(NC1CCCCC1)N(C1=NCCCCC1)c1ccc(Br)cc1 | -5.93% |
| Cc1cc(C)cc(N2Cc3ccccc3C2)c1 | -2.17% |
| COc1cc(/C=C/C(=O)OCC(=O)NCc2cccs2)ccc1OC(F)F | 2.88% |
| OC(C#CCN1CCCC1)c1ccccc1 (stereo not shown) | -2.28% |
| O=C1NC(c2ccccc2)CCC1(Cl)Cl (stereo not shown) | 6.57% |
| O=C(NCCc1c[nH]c2ccccc12)c1cncc(Br)c1 | 24.5% |
| O=[N+]([O-])c1ccc(-n2nnnc2-c2ccccc2)cc1 | -21.3% |
| Cc1c(NC(=O)c2cc(-n3cnnc3)ccc2Cl)cccc1-c1nc2ccccc2o1 | -3.33% |
| CCN1CCN(c2ccc(S(=O)(=O)N3CCOCC3)cc2NC(=O)/C=C/c2ccc([N+](=O)[O-])cc2)CC1 | -71.8% |
| Fc1ccccc1NC(=S)N(CCCN1CCOCC1)Cc1cccnc1 | -4.08% |
| Fc1ccc(-c2csc(N3CCOCC3)n2)cc1 | 10.5% |
| Fc1ccccc1Nc1nc(-c2ccncc2)nc2ccccc12 | 13% |
| O=C(CCSc1ccc(Br)cc1)Nc1cccnc1 | -17.7% |
| COc1ccc(NC2(C#N)CCCCC2)cc1 | 9.75% |
| CCOc1ccc(NS(=O)(=O)c2ccc(OCC)c3ncccc23)cc1 | 1.24% |
| COc1cccc(/C=C2\CC(C)Cc3c2nc2ccccc2c3C(=O)O)c1OC (stereo not shown) | 25.7% |

| Structure (SMILES) | hERG current change (%, negative = inhibition) at 10uM |
| --- | --- |
| C=CCOc1ccc(/C=C/C(=O)OCC(=O)N2CCC(c3ccccc3)=N2)cc1 | 4.97% |
| Cc1ccc(NC(=O)COC(=O)Cc2ccsc2)c(C)c1 | 4.63% |
| COc1cc(CN(CCN(C)C)Cc2ccccc2)ccc1OCc1ccccc1.O=C(O)C(=O)O | -31% |
| CN1C(=O)C(CC(=O)NC2CCCCC2)SC1=Nc1ccccc1 (stereo not shown) | -21.6% |
| CC(C)CCOP(=O)(c1ccc(N(C)C)cc1)C(O)c1ccc(Cl)cc1Cl (stereo not shown) | 0.259% |
| CCN(CC)C(=O)CSc1nnc(CSc2ncccn2)n1C | 3.28% |
| COC(=O)c1[nH]c2ccccc2c1NC(=O)C(C)N1CC(C)OC(C)C1 (stereo not shown) | 5.31% |
| CC(C)N(C(=O)c1sc2cc([N+](=O)[O-])ccc2c1Cl)C(C)C | -13.4% |
| NS(=O)(=O)c1ccc(CCNC(=O)c2ccco2)cc1 | -8.99% |
| COc1ccnc(Oc2ccccc2)c1C(=O)N/C=N/OCc1ccccc1F | -20.7% |
| CN(C)C=O.Cc1ccc2nc(SCC(=O)c3c(N)n(C)c(=O)n(C)c3=O)[nH]c2c1 | 6.78% |
| CCOc1ccccc1CNC(=O)c1ccc2nc(N3CCOCC3)sc2c1 | -47.5% |
| COc1ccc(-c2nc(C#N)c(NCc3cccnc3)o2)cc1OC | -26.1% |
| COc1ccc(C)cc1S(=O)(=O)Nc1ccc(-n2c(C)nc3ccccc3c2=O)cc1 | -44.3% |
| COc1ccc(CN2CCC(CO)(CCOc3ccccc3)CC2)cc1C | -81.8% |
| CSc1ccccc1NC(=O)CN(C)C(=O)C1CC(=O)N(C(C)c2ccccc2)C1 (stereo not shown) | -0.715% |
| COc1cccc(N2CCN(S(=O)(=O)c3ccc4c(c3)NC(=O)CS4)CC2)c1 | 32.5% |
| CCCNC(=O)Nc1ccc2c(c1)nc(C)n2C | -2.32% |
| O=C(CSc1ccc(-c2cccs2)nn1)N1CCCCCC1 | -15.2% |
| Clc1cccc(OCCOCCN2CCNCC2)c1Cl.O=C(O)C(=O)O | -8.19% |
| Cc1cccc(C)c1NC(=S)N(Cc1ccco1)C1CCN(C(C)C)CC1 | -4.72% |
| Cc1nc2c(o1)CCc1ccccc1C2O (stereo not shown) | 5.53% |

| Structure (SMILES) | hERG current change (%, negative = inhibition) at 10uM |
| --- | --- |
| CCC(C)N1C(=O)/C(=C/c2c(NCCCOC(C)C)nc3c(C)cccn3c2=O)SC1=S (stereo not shown) | -1.63% |
| Cc1csc(SCc2ccc(C(=O)O)cc2)n1 | -4.67% |
| CC(=O)Oc1cc2c(C(=O)NCCCN3CCOCC3)c(C)oc2c2ccccc12 | -18.2% |
| O=S(=O)(NC1CCCC1)c1ccccc1Br | -0.214% |
| CC(C)Oc1ccc(C(=O)Nc2c3c(nn2-c2ccccc2)CS(=O)(=O)C3)cc1 | -65.9% |
| COc1ccc2c(c1)CC/C(=C\Nc1ccc3c(c1)OCO3)C2=O | 11.3% |
| CN(C)S(=O)(=O)c1ccc(N2CCCC2)c(C(=O)NNC(=O)c2ccccc2)c1 | -8.32% |
| CC(C)=CCN1CCN(CCCc2ccccc2)CC1CCO (stereo not shown) | -26.8% |
| Cc1ccsc1CNCC(O)c1ccccc1.Cl (stereo not shown) | 9.66% |
| COc1cc(C2CC(=O)N(CC(=O)NCC3CCCO3)c3ccccc3S2)cc(OC)c1OC (stereo not shown) | 15.4% |
| O=S(=O)(c1ccccc1Oc1ccc(Cl)cc1Cl)N1CCCCC1 | 4.09% |
| CCOC(=O)C1(C)C=C(Nc2ccc(NC(C)=O)cc2)C(=O)N1c1ccc(NC(C)=O)cc1 (stereo not shown) | 12.2% |
| COc1ccc2c(c1)CCc1c(C(=O)N3CCOCC3)noc1-2 | -19.7% |
| CC(C)CC(=O)Nc1nnc(SCC(=O)NC2CCCCC2)s1 | 21.5% |
| CCOC(=O)N1CCN(C(=O)C(NS(=O)(=O)c2cccc3nsnc23)c2ccccc2)CC1 (stereo not shown) | -47.1% |
| O=C(CCCn1c(=S)[nH]c2ccsc2c1=O)Nc1ccc2c(c1)OCO2 | 17.2% |
| Cc1ccc(-c2noc(CCC(=O)NCc3ccc4c(c3)OCO4)n2)cc1 | 15.7% |
| O=C(CCCCn1c(=O)[nH]c2ccccc2c1=O)N1CCN(c2ncccn2)CC1 | -0.772% |
| COC(=O)CNC(=O)Cn1c(=O)n(Cc2ccc(F)cc2)c(=O)c2sccc21 | 2.77% |
| O=C(CSc1ccccn1)Nc1ccc(NC(=O)CSc2ccccn2)cc1 | 12% |
| O=C(COC(=O)c1ccc2c(c1)OCCO2)NCCC1=CCCCC1 | -10.8% |
| Cl.O=C(CSc1nnc(-c2ccccc2)n1C1CCCCC1)Nc1ccc(S(=O)(=O)Nc2ccccn2)cc1 | -5.23% |
